Among all 300,000 compounds or so, about 480 (0.16%) were called active. The shares of active, inactive and inconclusive entries below differ from those in the screen.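 Rule for the calls: active = inhibition over 29.93%, a cutoff 3 SD above the screen mean, later confirmed by dose response; inconclusive = inhibition over 29.93% but no dose response follow-up; inactive = inhibition at most 29.93% or unconfirmed.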
experiment: inhibitors of PhoP regulon expression, primary screen, Salmonella Typhimurium, GFP reporter (AID 1863);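 note: 0% = low Mg2+ inducing control and 100% = high Mg2+ repressing control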; settings: S. Typhimurium PhoP-regulated promoter GFP reporter, 4 h; at 50 µM; active compounds read high

SMILES	inhibition
CC(C)N(C)NC(=S)Nc1ccccc1	inconclusive: 37.3%
CCCN1C(=O)S/C(=C\c2ccc(N3CCOCC3)cc2C)C1=O	inconclusive: 41.2%
CN1C(=O)/C(=C2/C=Cc3ccccc3N2CCCS(=O)(=O)O)SC1=S	inconclusive: 31%
Cc1nc2ccccc2n1CCCOc1ccccc1	inactive: 5.12%
CC#CC[N+](C)(C)CCCCCCCCCCCC	inconclusive: 46.9%
COc1ccc(-c2cnnn2-c2ccc(NC(=O)c3ccc(S(=O)(=O)N4CCCCC4)cc3)cc2)cc1	inconclusive: 34.1%
O=c1cnnc(N/N=C/c2ccccn2)[nH]1	inconclusive: 132%
O=C(Cn1cc(S(=O)(=O)Cc2ccccc2)c2ccccc21)Nc1ccccc1	inconclusive: 31.3%
CN(C)CCNC(=O)/C(=C/c1ccc(-c2ccc(Cl)cc2Cl)o1)NC(=O)c1ccccc1	inconclusive: 45.5%
O=C(O)c1cccc(NC(=O)c2ccc3c(c2)C(=O)N(CC2CCCO2)C3=O)c1 (stereo not given)	inactive: -1.15%
COc1ccc(OC)c(S(=O)(=O)CC(O)CS(=O)(=O)c2ccccc2)c1 (stereo not given)	inactive: -7.1%
CCc1sc(N)nc1-c1ccccc1	inconclusive: 32.8%
CCN=C1S/C(=C\c2ccc(OC)c(OCC)c2)C(=O)N1CC	inconclusive: 39.7%
O=C(Nc1ccc(C2=NCCN2)cc1)c1ccc(C(=O)Nc2ccc(C3=NCCN3)cc2)c([N+](=O)[O-])c1	inconclusive: 94.6%
C=CCn1c(SCCC)nc2sc3c(c2c1=O)CCc1ccccc1-3	inconclusive: 30.2%
CC1Cc2ccccc2N1C(=O)CSc1nnnn1-c1ccc2c(c1)OCCO2 (stereo not given)	inactive: 4.49%
COc1ccccc1N1CCN(C(=O)Nc2cccc(Cl)c2)CC1	inactive: -5.86%
Cn1c(CCCNC(=O)c2cccs2)nc2ccccc21	inactive: -1.8%
Cc1ccc(/C=N/Nc2nc3ccccc3[nH]2)s1	inconclusive: 34.2%
COc1ccccc1NC(=O)c1cnc(Nc2ccccc2OC)c2ccccc12	inconclusive: 31.9%
CCCCn1c(/N=C/c2ccc3c(c2)OCO3)nc2ccccc21	inconclusive: 31.3%
O=C(Oc1c(CN2CCOCC2)cc(Cl)c2cccnc12)c1ccccc1	inconclusive: 55%
Cn1cc([N+](=O)[O-])c(C(=O)Nc2ccc(-c3nc4ccccc4[nH]3)cc2)n1	inconclusive: 30.2%
Cc1[nH]cnc1C(=O)N/N=C/c1ccc([N+](=O)[O-])s1	inactive: 4.75%
Oc1ccccc1Nc1nc(NCC2CCCO2)c2ccccc2n1 (stereo not given)	inactive: 13.1%
CC1=NN(c2nc3ccccc3[nH]2)C(=O)C1Cc1ccccc1 (stereo not given)	inconclusive: 76.2%
O=C(O)CC12CSc3[nH]c(=O)sc3C1c1ccccc1OC2=O (stereo not given)	inconclusive: 47.2%
C(=N\Nc1nc2ccccc2[nH]1)/c1c[nH]c2ccccc12	inconclusive: 70.3%

SMILES	inhibition
Cc1ccc(Nc2nc(CSc3nnc(-c4cccnc4)n3-c3ccccc3C)cs2)cc1	inconclusive: 31.1%
CCO[C@@H]1OC(C(=O)N2CCCCCCC2)=C[C@H](c2cn(C(C)=O)c3ccccc23)[C@H]1CCCO	inactive: -5.2%
Oc1c(C(Nc2ccccn2)c2cccnc2)cc(Cl)c2cccnc12 (stereo not given)	inconclusive: 146%
O=C(NC1(C(F)(F)F)C(=O)Nc2c1c(=O)[nH]c(=O)n2Cc1ccco1)C1CCCCC1 (stereo not given)	inconclusive: 35.8%
CNC(=S)N/N=C(\C)c1ccc(C(C)(C)C)cc1	inconclusive: 34.9%
O=C(N/N=C/c1sc2ccccc2c1O)c1ccccc1	inconclusive: 48.3%
CCN(CC)S(=O)(=O)c1ccc(NC2c3ccccc3C(=O)N2Cc2ccc3c(c2)OCO3)cc1 (stereo not given)	inconclusive: 39.5%
Clc1ccccc1CONc1ncnc2nonc12	inactive: -2.15%
Cc1cccc(NC(=O)C2Cc3ccccc3CN2C(=O)OCc2ccccc2)c1C (stereo not given)	inconclusive: 50.6%
C=CC[C@@H]1Cc2c(Br)ccc(Br)c2[C@@H](CC=C)N1	inconclusive: 33.3%
COc1c(N2CCN(C(=S)Nc3ccccc3)C(C)C2)c(F)cc2c(=O)c(C(=O)O)cn(C3CC3)c12 (stereo not given)	inconclusive: 145%
OCC[C@H]1C[C@@H](O)[C@H](O)[C@]2(CCCCO2)O1	inactive: -4.87%
CCC(C)(C)c1ccc(OCCCC[n+]2cccc(C)c2C)c(C(C)(C)CC)c1	inconclusive: 117%
CO[C@H]1C=CO[C@@]2(C)Oc3c(C)c(O)c4c(O)c(c5c(nc6cc(C)ccn65)c4c3C2=O)NC(=O)C(C)=CC=C[C@H](C)[C@H](O)[C@@H](C)[C@@H](O)[C@@H](C)[C@H](OC(C)=O)[C@@H]1C	inactive: -3.25%
CC(C)C(=O)NC(=S)Nc1ccc(S(=O)(=O)Nc2ccccc2)cc1	inconclusive: 34.1%
C[C@H]1COc2c(C3(N)CC3)c(F)cc3c(=O)c(C(=O)O)cn1c23	inconclusive: 101%
CN(C)c1ccc(N2C(=O)CSC2=S)cc1	inconclusive: 33.5%
O=C(N/N=C/c1ccccn1)c1sc2ccccc2c1Cl	inconclusive: 55.1%
Nc1nc(N)c2c(ccc3nccc32)[nH]1	inconclusive: 59.6%
Cc1cc(C)cc(CN2C(=O)NC3(CCCCCC3)C2=O)c1	inactive: -9.68%
CC(NCc1ccc(-c2ccccc2)cc1)C(O)c1ccccc1 (stereo not given)	inconclusive: 33.1%
NNc1ncnc2scc(-c3ccc(Cl)cc3)c12	inconclusive: 33.7%
COc1ccc(-c2csc3nc(-c4cccnc4)nc(Cl)c23)cc1OC	inconclusive: 32.4%
C/C(=N\Nc1ncc(Cl)cc1Cl)c1ccccn1	inactive: 9.66%
Cc1ccc(C)c(N2CCN(S(=O)(=O)c3ccc4c(c3)CCC(=O)N4)CC2)c1	inconclusive: 30.2%
O=C(NC1CC1)c1c[nH]c2ccc(S(=O)(=O)Nc3cccc(C(F)(F)F)c3)cc2c1=O	inactive: 14.8%
CCOC(=O)C1CCN(C(=O)Nc2ccc3nc(-c4ccco4)c(-c4ccco4)nc3c2)CC1	inconclusive: 20.5%

Reference: PubChem BioAssay AID1863 (Southern Research Specialized Biocontainment Screening …, 2009)
